Laboratory results as given in the Bradley open melting point set (2014).

CC(C)(C)c1ccc(O)cc1 [4-tert-butylphenol]
melting point: 99 °C
